Results as given in PubChem BioAssay AID651820 (National Center for Advancing Translational Sciences (NCATS), 2012).
Out of some 340,000 compounds screened, about 12,000 (3.5%) were called active. Inconclusive means that the source gave no clear call. Such entries were picked first, then a sample of the others. Calls follow the shape of the dose curve; as a rule, active = well fitted inhibition curve with a large enough effect; inconclusive = small, poorly fitted or top-dose-only effect, or another doubt; inactive = no such curve, though single readings can be large or run the other way. No potency is given beside an inconclusive call; the fits are too rough.

Experiment: qHTS Assay for Inhibitors of Hepatitis C Virus (HCV)
Settings: Huh7.5.1 HCVcc-Cre (HCVcc is cell-culture hepatitis C virus) infection, luciferase reporter, 44 h; series mostly up to 41.8 µM
Procedure, shortened: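 Infectious HCVcc-Cre (~0.5 moi) was added to cells just after compound, with cells seeded 4 h earlier at 1,000 per well. Luciferase activity after 44 h culture reported infection; substrate was incubated 15 min at room temperature before reading.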
Potency is read from the fitted curve at half-maximal effect; tags tell the direction and shape of the fitted curve.

Row | Compound | Potency
1 | Fc1ccc(Oc2ccnc(Cl)n2)c(Cl)c1 | inactive
2 | O=C(Nc1cccc(S(=O)(=O)N2CCCCC2)c1)c1cc2ccccc2o1 | inconclusive [inhibitor, single point]
3 | CCS(=O)(=O)CCSc1nc2ccccc2s1 | inactive
4 | O[C@H]1COC2C1OC[C@@H]2O (some centres undefined) | inconclusive [inhibitor, single point]
5 | COc1ccc(CCn2c(=S)[nH]c3ccc(N4CCOCC4)cc3c2=O)cc1OC | inconclusive [inhibitor, full curve, poor fit]
6 | N#Cc1ccccc1NC(=O)COC(=O)/C=C/c1ccc(S(=O)(=O)N2CCOCC2)cc1 | inactive
7 | CCOc1ccc(C(=O)C2CCN(C(=O)c3ccc([N+](=O)[O-])cc3)CC2)cc1 | active: 10 µM
8 | Cc1cc(C=O)c(C)n1-c1ccc(NC2CCCC2)c([N+](=O)[O-])c1 | inconclusive [inhibitor, single point]
9 | CC1CCN(c2ccc(-c3cccc(NC(=O)c4ccco4)c3)nn2)CC1 | inconclusive [inhibitor, partial curve]
10 | CCOC(=O)C1CCCN(C(=O)c2cc(Nc3ccc(OC)cc3)nc3ccccc23)C1 (centres undefined) | inconclusive [inhibitor, partial curve]
11 | Cc1cccc[n+]1CC(=O)c1ccc([N+](=O)[O-])cc1 | inconclusive [inhibitor, single point]
12 | C=CCCC(=O)Nc1nc(C)c(-c2csc(Nc3ccccc3OC)n2)s1 | inconclusive [inhibitor, partial curve]
13 | O=C(O)c1ccc(NC(=O)c2cn(-c3ccccc3)nc2-c2ccc(Cl)cc2)cc1 | inconclusive [inhibitor, single point]
14 | COc1ccc(S(=O)(=O)Nc2ccc(C)cc2)cc1N(C)S(=O)(=O)c1ccc(Cl)cc1 | active: 8.91 µM
15 | Cn1c(Cn2nnc3ccccc32)nnc1SCC(=O)N1c2ccccc2Sc2ccccc21 | inconclusive [inhibitor, single point]
16 | O=C(OCCN1CCCC1=O)c1cc(F)c(F)c(F)c1F | inconclusive [inhibitor, single point]
17 | Cc1cccc(-c2noc(-c3ccc4c(c3)OCO4)n2)c1 | inactive
18 | CCOC(=O)C1CCN(C(=O)C(C)N(c2ccc(Oc3ccccc3)cc2)S(C)(=O)=O)CC1 (centres undefined) | active: 10 µM
19 | CC(=O)Nc1cccc(NC(=O)c2ccc(COc3ccccc3)cc2)c1 | inconclusive [inhibitor, single point]
